Screen size: about 310,000 compounds; about 2,200 (0.71%) showed an effect of 50% or more. The effect is printed as a negative number. Some of the results follow.

In the experiment the target is human ether-à-go-go-related gene (hERG) potassium channel (human, UniProt Q12809). In words: primary screen, population patch clamp on CHO cells stably expressing hERG.
Sequence of human ether-à-go-go-related gene (hERG) potassium channel (Q12809 whole entry, looked up): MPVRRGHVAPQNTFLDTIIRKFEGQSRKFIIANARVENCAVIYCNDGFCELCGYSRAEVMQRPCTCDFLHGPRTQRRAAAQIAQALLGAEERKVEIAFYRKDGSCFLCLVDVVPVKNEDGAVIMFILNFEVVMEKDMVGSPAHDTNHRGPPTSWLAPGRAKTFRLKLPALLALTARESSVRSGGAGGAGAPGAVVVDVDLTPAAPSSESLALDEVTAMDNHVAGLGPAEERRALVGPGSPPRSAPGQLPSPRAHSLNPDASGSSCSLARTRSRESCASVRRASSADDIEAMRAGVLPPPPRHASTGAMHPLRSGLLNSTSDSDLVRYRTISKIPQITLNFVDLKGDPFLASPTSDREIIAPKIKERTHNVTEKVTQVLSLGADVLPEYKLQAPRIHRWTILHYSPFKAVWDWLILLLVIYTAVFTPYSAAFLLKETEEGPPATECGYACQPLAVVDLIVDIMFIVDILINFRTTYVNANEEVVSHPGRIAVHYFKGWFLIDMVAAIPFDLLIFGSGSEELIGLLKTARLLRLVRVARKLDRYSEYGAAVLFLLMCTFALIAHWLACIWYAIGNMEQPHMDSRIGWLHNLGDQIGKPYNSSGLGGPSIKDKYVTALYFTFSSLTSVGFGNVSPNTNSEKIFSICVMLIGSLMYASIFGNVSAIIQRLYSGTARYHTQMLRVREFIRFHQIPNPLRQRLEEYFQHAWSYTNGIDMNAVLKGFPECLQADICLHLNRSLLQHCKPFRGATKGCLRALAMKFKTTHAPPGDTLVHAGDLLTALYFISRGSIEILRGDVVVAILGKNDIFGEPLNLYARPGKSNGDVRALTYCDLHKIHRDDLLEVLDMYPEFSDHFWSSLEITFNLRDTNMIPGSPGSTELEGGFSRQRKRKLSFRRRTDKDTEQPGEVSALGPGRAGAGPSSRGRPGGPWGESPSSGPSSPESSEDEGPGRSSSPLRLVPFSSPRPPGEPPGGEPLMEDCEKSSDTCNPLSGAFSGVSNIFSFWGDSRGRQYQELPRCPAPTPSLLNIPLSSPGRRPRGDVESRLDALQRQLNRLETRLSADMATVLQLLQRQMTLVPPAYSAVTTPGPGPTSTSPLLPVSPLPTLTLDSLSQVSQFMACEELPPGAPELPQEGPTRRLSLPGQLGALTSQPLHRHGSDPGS
On to `COc1cnc(N(C)C)nc1Sc1ccc(Cl)cc1`, for which the “hERG current change (%, negative = inhibition) at 1uM” value was 11.1%.
Next, `O=C(COC(=O)c1ccc(NS(=O)(=O)c2cccs2)cc1O)Nc1nc2ccccc2s1`: 10.5%; `CC(C)C(NC(=O)c1ccccc1)C(=O)NC1=NCCS1` (centres unmarked): 11.4%; `COc1cccc(-c2[nH]nc3c2C(c2ccsc2)C(C#N)=C(N)O3)c1` (centres unmarked): 3.18%.
With `Cc1cc(C)nc(-n2nc(C)c(C3(O)C(=O)Nc4ccc(F)cc43)c2N)n1` (centres unmarked) the figure was 8.77%.
With `Cc1ccc(C)c(S(=O)(=O)Nc2cccc(-n3cnnn3)c2)c1` the figure was 10.9%.
As for `O=C(N/N=C/c1cc2ccccc2[nH]1)c1ccccc1Cl`, the “hERG current change (%, negative = inhibition) at 1uM” value was found to be 10.6%.
Next, `CN(C)S(=O)(=O)c1ccc(C(=O)Nc2ccccc2[N+](=O)[O-])cc1`: 5.27%.
Next, `Cc1noc(C)c1COC(=O)c1cccc(N(C)C)c1`: 11.6%; `CN(CC(=O)Nc1cccc(F)c1)C(=O)CCCn1c(=O)oc2ccccc21`: -21.7%; `COc1ccc(/C=C/C(=O)NC(=S)NNC(=O)c2cnccn2)cc1`: 18.8%.
With `CCCn1nc2cc(C(=O)NCCCCc3ccccc3)ccc2c1OCC` the figure was 7.48%; with `COC(=O)CCCNC(=O)OCc1ccc([N+](=O)[O-])cc1`, -3.88%; with `COc1ccc(CC(=O)NNC(=S)Nc2ccc(Br)cc2)cc1`, 4.75%.
Regarding `COC(=O)N/N=C(\C)c1ccc(Br)cc1`, the “hERG current change (%, negative = inhibition) at 1uM” value was determined as 8.75%.
With `CC1(C)CC(=O)C=C(NC2=CC3OC(c4ccccc4)OCC3OC2=O)C1` (centres unmarked) the figure was 13.4%; with `COc1ccc(C(=O)CCN2CCN(c3ccccc3F)CC2)cc1.Cl`, -39.4%.
Consider `CC(=O)N1c2ccc(S(=O)(=O)N3CCC(C(=O)NCc4ccc(F)cc4)CC3)cc2CC1C` (centres unmarked), for which the “hERG current change (%, negative = inhibition) at 1uM” value is recorded as 11.2%.
With `CS(=O)(=O)NNC(=O)Cn1nnc(-c2ccc(OCc3ccccc3Cl)cc2)n1` the figure was 15.3%; with `CCN(CCCNC(=O)C1CCN(S(=O)(=O)c2cnc[nH]2)CC1)c1ccccc1`, 14.4%; with `COc1cc2c(cc1OC)CN(S(=O)(=O)c1cccc(F)c1)CC2`, 16.9%.
With `Cc1[nH]c(=O)[nH]c(=O)c1N1CCOCC1` the figure was 9.51%; with `O=C(Nc1cnccn1)c1csc2ccccc12`, 11.2%.
With `Cc1ccc(C2C(=O)N(C3CCCC3)CC(=O)N2C2CCCCC2)cc1` (centres unmarked) the figure was -12.9%; with `CCCCNC(=O)CCSc1nc2nc(C)cc(C)n2n1`, 6.29%.
With `Cc1cc(NC(=O)CSc2nnc(Nc3ccccc3F)s2)no1`, the “hERG current change (%, negative = inhibition) at 1uM” value stood at 11.2%.
With `O=C(CSc1nnc(CNC(=O)c2ccccc2)o1)c1ccc(Cl)cc1` the figure was 1.46%.
Next, `Cc1cnc(C(=O)NC2CCSc3ccccc32)cn1` (centres unmarked): 19%; `CCOc1ccc(NC(=O)CC2Nc3ccccc3NC2=O)cc1` (centres unmarked): 9.45%; `COc1c(C)cc(C(=O)C2CCCN(C(=O)CCCn3cncn3)C2)cc1C` (centres unmarked): 6.5%.
Next, `O=C(CN1CCN(Cc2ccc(Cl)cc2)CC1)N/N=C/c1cccs1`: -30.9%; `Cc1sc2ncnc(N=Nc3c(O)[nH]c4ccccc34)c2c1C`: 20.7%; `Cc1nn(C)c(Cl)c1CN1CCCC(C(=O)Nc2ccc(-c3cscn3)cc2)C1` (centres unmarked): 6.3%.
On to `Cc1c(CCO)c(=O)[nH]n1C(=O)c1ccc(F)cc1`, for which the “hERG current change (%, negative = inhibition) at 1uM” value was 13.9%.
With `CCC(C(=O)N1CCC2(CC1)OCCO2)c1ccccc1` (centres unmarked) the figure was 3.25%; with `CCN(CC)c1nc(N)c([N+](=O)[O-])c(NCCO)n1`, 16.2%; with `Cc1cccc(NC(=O)CCS(=O)(=O)c2ccccc2)c1`, 14.4%.
With `Cc1ccc(C)c(NC2=NC3(CCCCC3)N=C(N)N2)c1` the figure was 12.7%; with `Cc1cc(C(C)(C)C)oc1C(=O)N(CC(=O)NC1CCCC1)c1c(C)cccc1C`, 6.39%; with `Cc1cnc(C(=O)Nc2ccc(OC(F)(F)F)cc2)cn1`, 5.57%.
With `CC(C)(C)NC(=O)COC(=O)c1ccccc1OCC(=O)Nc1ccc(Br)cc1` the figure was 16.1%.
As to `O=C(Cc1noc2ccccc12)NNC(=S)Nc1ccccc1`, the “hERG current change (%, negative = inhibition) at 1uM” value came to 12.5%.
As for `Cc1ccc(Sc2ncccc2C(=O)NCC(c2ccc(F)cc2)N2CCOCC2)cc1C` (centres unmarked), the “hERG current change (%, negative = inhibition) at 1uM” value is 4.61%.
Next, `O=C(c1ccco1)N1C(=O)c2cccc3c(S(=O)(=O)N4CCCC4)ccc1c23`: 6.3%.

For the origin of these results see publication PMC4336329 (PLoS ONE, 2015).
